About 14,000 (4.5%) of roughly 310,000 compounds showed an effect of 50% or more. Effects have a minus sign here. This is one part of the list.
Each molecule was assayed against human ether-à-go-go-related gene (hERG) potassium channel (human, UniProt Q12809) (assay: primary screen, population patch clamp on CHO cells stably expressing hERG).
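Further: peak tail current of the secondary pulse compared with the same well before compound.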

Sequence of human ether-à-go-go-related gene (hERG) potassium channel (Q12809 whole entry, looked up): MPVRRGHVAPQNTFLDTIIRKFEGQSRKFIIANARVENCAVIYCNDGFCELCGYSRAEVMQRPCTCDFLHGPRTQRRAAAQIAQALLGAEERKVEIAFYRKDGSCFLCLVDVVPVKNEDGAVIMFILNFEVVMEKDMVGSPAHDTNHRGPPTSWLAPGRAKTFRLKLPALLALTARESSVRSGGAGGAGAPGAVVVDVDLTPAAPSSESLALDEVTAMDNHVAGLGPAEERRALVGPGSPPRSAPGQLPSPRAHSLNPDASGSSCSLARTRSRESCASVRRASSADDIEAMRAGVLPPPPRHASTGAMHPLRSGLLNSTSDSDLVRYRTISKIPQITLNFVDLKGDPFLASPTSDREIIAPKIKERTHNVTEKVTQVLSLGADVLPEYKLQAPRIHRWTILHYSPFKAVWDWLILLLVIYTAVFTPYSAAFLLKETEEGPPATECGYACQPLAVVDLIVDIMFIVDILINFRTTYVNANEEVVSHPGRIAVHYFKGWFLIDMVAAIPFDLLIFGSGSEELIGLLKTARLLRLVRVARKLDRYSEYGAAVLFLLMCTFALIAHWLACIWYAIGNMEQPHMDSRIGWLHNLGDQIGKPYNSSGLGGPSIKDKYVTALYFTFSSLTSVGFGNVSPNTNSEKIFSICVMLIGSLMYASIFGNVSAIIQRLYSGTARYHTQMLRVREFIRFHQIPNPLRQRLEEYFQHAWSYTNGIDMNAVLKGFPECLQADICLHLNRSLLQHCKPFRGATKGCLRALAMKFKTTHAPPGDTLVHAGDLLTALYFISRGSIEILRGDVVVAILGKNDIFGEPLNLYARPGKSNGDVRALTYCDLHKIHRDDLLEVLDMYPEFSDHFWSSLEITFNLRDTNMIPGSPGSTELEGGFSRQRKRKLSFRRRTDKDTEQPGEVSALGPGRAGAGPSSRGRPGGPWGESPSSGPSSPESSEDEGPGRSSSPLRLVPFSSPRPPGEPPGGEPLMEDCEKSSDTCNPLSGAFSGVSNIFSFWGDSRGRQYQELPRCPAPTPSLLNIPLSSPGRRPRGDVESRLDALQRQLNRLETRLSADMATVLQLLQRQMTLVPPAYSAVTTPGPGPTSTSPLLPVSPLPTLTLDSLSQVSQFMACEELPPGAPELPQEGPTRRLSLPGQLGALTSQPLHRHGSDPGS

Row | SMILES | hERG current change (%, negative = inhibition) at 10uM [%]
1 | Cc1oc(-c2ccc(Cl)cc2)nc1CS(=O)CC(=O)NCCN1CCCC1 (stereo not drawn) | -18.2
2 | CCC1(c2ccc(-c3ccccc3)cc2)C(=O)NC(=O)NC1=O | 13.3
3 | Oc1cccc(-c2nc3c4c(ncn3n2)-c2ccccc2CC42CCCC2)c1 | -7.64
4 | CCOc1cc2[nH]c(=O)n(CCCC(=O)N(C)Cc3ccccc3)c(=O)c2cc1OCC | -1.74
5 | CCOCCCNC(=O)c1oc2ccc3c(c2c1C)C(O)CC(C)(C)O3 (stereo not drawn) | 16.1
6 | O=C1CCCCN1CCC(=O)N1CCCC(N2CCN(c3ccccc3)CC2)C1 (stereo not drawn) | -47.1
7 | O=C(CSc1ccccn1)Nc1ccc2c(c1)OCO2 | 4.65
8 | COc1ccccc1/C=C(/C(=O)OCC(=O)Nc1ccccc1C)c1ccccc1 | 9.14
9 | O=C(N=C1SCC(=O)N1c1ccccc1)c1ccco1 | -43.7
10 | O=C(O)C1=C(C(=O)Nc2cc(C(F)(F)F)ccc2Cl)CCCC1 | 27
11 | NC(=O)C1CCN(C(=O)CN2CCCc3ccccc32)CC1 | 22.6
12 | CCC1CCCCN1C(=O)c1ccc(OC2CCN(Cc3ccccn3)CC2)cc1 (stereo not drawn) | 5.27
13 | CCN(CC)S(=O)(=O)c1ccc(/C=C/C(=O)OCC(=O)NCc2ccc3c(c2)OCO3)cc1 | 5.34
14 | Cc1cc(C)c(-c2csc(Cc3nc(-c4cc5ccccc5oc4=O)cs3)n2)cc1C | 23.8
15 | CC1=C(N2CCCCC2)CCC1=O | 1.26
16 | COC(=O)NNC(=O)C12CC3CC(CC(C3)C1)C2 | 2.97
17 | CC(=O)Nc1ccc(SCCN2CC[C@@H](C(C)(C)C)CCC2=O)cc1 | 1.26
18 | Cc1c(O)ccc(NS(=O)(=O)c2ccccc2)c1C | 3.6
19 | Cc1onc(-c2ccccc2Cl)c1C(=O)Nc1ncn[nH]1 | 5.24
20 | C=CCN1c2ccccc2[C@]23C[C@@H](C(=O)OC)N(C(=O)c4ccco4)C2=NC(C(=O)OC)=C(C(=O)OC)[C@H]13 | -32.4
21 | CCc1c(C)sc(NC(=O)c2cc(-c3cc(OC)ccc3OC)on2)c1C#N | 3.3
22 | CC(Oc1ccccc1)c1ccnc(N)n1 (stereo not drawn) | 17.7

Row | SMILES | hERG current change (%, negative = inhibition) at 10uM [%]
23 | COc1ccc(CNC(=O)C(OC(=O)c2ccco2)c2ccccc2F)cc1 (stereo not drawn) | -8.86
24 | C/C(=N/NS(=O)(=O)c1ccc(Br)cc1)c1c[nH]c2ccccc12 | 13.7
25 | CC1=C/C(=N\S(=O)(=O)c2ccccc2)C(C(C)C)=CC1=O | 7.47
26 | Cc1[nH]c(=O)[nH]c(=O)c1S(=O)(=O)N1c2ccc(F)cc2CCC1C (stereo not drawn) | 13.8
27 | Cc1nn(C)c(C)c1CNC(=O)/C=C/c1ccccc1F | 4.73
28 | COc1ccc(C)cc1S(=O)(=O)N1CCC(C(=O)N2CCN(C)CC2)CC1 | 23.2
29 | Cc1cccc2c1N(N=O)CCC2 | -2.33
30 | Cc1ccccc1NC(=O)CSc1nc2c(c(-c3ccco3)c1C#N)CCCC2 | -15.3
31 | COc1ccc(Nc2nnc(SCC(=O)N3CCCC3)s2)cc1 | 2.03
32 | O=C(NCc1cccs1)C(=O)NCC(c1ccco1)N1CCN(c2ccc(F)cc2)CC1 (stereo not drawn) | -29
33 | COc1ccc(NC(=O)CN(C)C(=O)c2ccc3c(c2)OCCO3)cc1 | 17.5
34 | COc1ccccc1CNC(=O)CN1C(=O)c2cccc(N)c2C1=O | 16.9
35 | Cc1cccc(NS(=O)(=O)c2cc(Cl)ccc2Cl)n1 | 22.2
36 | COC(=O)Cc1c(O)ccn(CCc2c[nH]c3ccc(OC)cc23)c1=O | -20.9
37 | CCC(Oc1ccccc1)C(=O)Nc1ncc([N+](=O)[O-])s1 (stereo not drawn) | 30
38 | Cc1ccc2cc(CCNC(=O)C(C)C)c(=O)[nH]c2c1 | -2.85
39 | Cc1cccc(N2CCN(C(=O)C3CCN(S(=O)(=O)c4cccc5nsnc45)CC3)CC2C)c1 (stereo not drawn) | -15.3
40 | NC(=O)C1CCN(C(=O)COc2ccc3ccccc3c2Br)CC1 | 0.834
41 | COC(=O)/C(C#N)=C/c1c(N2CCN(Cc3ccc4c(c3)OCO4)CC2)nc2c(C)cccn2c1=O | -41
42 | O=[N+]([O-])c1ccc(C2CC(c3ccccc3)=Nc3ccccc3S2)cc1 (stereo not drawn) | -26.3
43 | CCN(CCCl)Cc1ccccc1Br.Cl | 16.3
44 | COc1ccc(CNC(=O)c2c(O)c3cccc4c3n(c2=O)CCC4)cc1OC | 16.1

Row | SMILES | hERG current change (%, negative = inhibition) at 10uM [%]
45 | O=C(OC1CCOC1=O)c1cc(-c2cccs2)nc2ccccc12 (stereo not drawn) | 1.05
46 | N#Cc1cccc(NC(=O)CN2NS(=O)(=O)c3ccccc3C2=O)c1 | 13.2
47 | CCC(=O)N1c2ccc(S(=O)(=O)CCC(=O)NCc3ccc4c(c3)OCO4)cc2CC1C (stereo not drawn) | 8.01
48 | CC1CCc2sc(C(=O)OCC(=O)NCc3ccccc3)cc2C1 (stereo not drawn) | 24.5
49 | Cc1ccccc1-c1nc(CS(=O)(=O)CC(=O)NCCCN2CC(C)CC(C)C2)c(C)o1 (stereo not drawn) | -45.1
50 | CCN(C(=O)C1CCN(c2nc(-c3ccc(OC)cc3)no2)CC1)c1ccc(OC)cc1 | -27.7
51 | COc1ccc(S(=O)(=O)N2CCOCC2)cc1NC(=O)CC1CC2CCC1C2 (stereo not drawn) | 6.5
52 | Cc1ccc(/C=C2\SC(=S)N(CCCC(=O)Nc3ccccn3)C2=O)cc1 | 15.2
53 | O=C(c1cccc(S(=O)(=O)N2CCOCC2)c1)N(CCO)Cc1ccccc1 | -19.8
54 | O=C(CNC(=O)c1ccc(Cl)cc1Cl)OCc1ccccc1 | 17.4
55 | O=c1[nH]c(=S)[nH]c2sccc12 | 12.4
56 | COc1ccc(Br)c2oc(SC)cc(=O)c12 | -5.41
57 | CC(C)CN1C(=O)c2ccc(C(=O)NCc3ccc4c(c3)OCO4)cc2C1=O | 13.6
58 | Cc1cc(Nc2ccc(F)c(Cl)c2)n2nc(C)nc2n1 | -18
59 | COc1cccc(C2C3=C(CCCC3=O)Nc3nc(-c4cc(OC)c(OC)c(OC)c4)nn32)c1 (stereo not drawn) | 0.87
60 | O=C(O)Cc1nc(-c2cccnc2)sc1-c1ccc(Br)cc1 | 38.1
61 | CCC/C=C(\CCC)C(NS(=O)(=O)c1cccc2cccnc12)c1ccc(C(=O)OC)cc1 (stereo not drawn) | 3.35
62 | C/C(=N\NC(=O)CSc1nnc(C)s1)c1ccc(O)cc1 | 5.38
63 | CC(/C=C1\SC(=S)N(C(C(=O)O)C(C)C)C1=O)=C\c1ccccc1 (stereo not drawn) | 3.88
64 | C=CCn1c(CCCNC(=O)C(C)(C)C)nc2ccccc21 | 18.2
65 | CN(C)CCCn1c(N)c(C#N)c2nc(C#N)c(C#N)nc21 | 14.6
66 | Cc1cc(C)c(S(=O)(=O)N2CCCOC2CNC(=O)C(=O)NCc2ccco2)c(C)c1 (stereo not drawn) | 5.27

Row | SMILES | hERG current change (%, negative = inhibition) at 10uM [%]
67 | COc1ccc(N2CCN(C(=O)[C@H](Cc3c[nH]c4ccccc34)NC(C)=O)CC2)cc1 | 7.32
68 | NC(=O)CC[C@H](NC(=O)c1ccc(F)cc1)C(=O)OCC(=O)Nc1c(F)c(F)c(F)c(F)c1F | -6.21
69 | Cn1c(=O)c(Sc2ccc(Cl)cc2)c(O)c2ccccc21 | 24
70 | COc1ccccc1-n1c2c(cc(C(=O)N3CCC(C)CC3)c1=O)C(=O)CC(C)(C)C2 | -9.14
71 | O=C(CCc1nnc(C2CCCCC2)o1)N1CCN(C2CCCCC2)CC1 | 10.4
72 | COc1cccc(OCc2cc(C(=O)NC(C)c3cnn(C)c3C)no2)c1 (stereo not drawn) | -2.65
73 | Cc1nn(-c2nc3ccccc3s2)c(N)c1-c1ccc(Cl)cc1 | 24.1
74 | O=C(CCN1C(=O)c2ccccc2C1=O)Nc1ccncc1 | -0.744
75 | O=C1C(Cc2ccccc2)S/C(=N/N=C/c2ccco2)N1c1ccccc1 (stereo not drawn) | 13
76 | CCOc1ccc2nc(SCC(=O)Nc3ncccn3)[nH]c2c1 | 8.99
77 | O=C(Nc1c(C(=O)O)[nH]c2ccccc12)NC1CCCCC1 | 5.81
78 | CCOc1ccc(CCNC(=O)c2sc3nc4n(c(=O)c3c2C)CCC4)cc1 | -6.82
79 | Cc1ccsc1/C=N/NC(=O)c1nnn(-c2nonc2N)c1CN(C)c1ccccc1 | 21.8
80 | Cc1cc(NC(=O)CN(C)S(=O)(=O)c2cccc(Cl)c2)no1 | -14.8
81 | CCCN(C(=O)CSc1nnnn1C)C1CCS(=O)(=O)C1 (stereo not drawn) | 10.3
82 | CCC(=O)Nc1cc(C)c(NC(=O)c2ccco2)cn1 | 6.77
83 | COC(=O)Cn1nnc2c(cnn2-c2ccccc2)c1=O | 6.88
84 | Cc1c(CCOC(=O)CC23CC4CC(CC(C)(C4)C2)C3)sc[n+]1Cc1ccc([N+](=O)[O-])cc1.[Br-] | -87.8
85 | C/C(=N\NC(=O)c1ccc(N/N=C(\C)c2ccncc2)cc1)c1ccncc1.O=S(=O)(O)O | 15.1
86 | Cc1nn(Cc2c(Cl)cccc2Cl)c(C)c1NC(=O)c1sc2ccccc2c1Cl | 13.4
87 | Cc1ccc(N2C(=O)[C@@H]3C(c4ccc(F)cc4)=NO[C@@H]3C2=O)cc1 | -2.56

Reference: article PMC4336329 (PLoS ONE, 2015)
